# In all, about 350,000 compounds went through this assay and about 9,900 (2.8%) were called active. The inconclusive results got no clear call from the source; some entries with a clear call stand among them for comparison. Calls come from the whole dose curve; as a rule, active = well fitted activation curve with a large enough effect; inconclusive = small, poorly fitted or top-dose-only effect; inactive = no such curve, though single readings can be large or run the other way. Potencies of inconclusive entries are left out as doubtful fits.
# Test: A quantitative high throughput screen for small molecules that induce DNA re-replication in MCF 10a normal breast cells. For activity, positive = re-replication: % of control where 0% means no effect. Note: nearly all actives have a fitted effect of over 50% in size.
# Settings: MCF 10A DNA re-replication, Hoechst nuclear intensity, 48 h; activity, positive = re-replication: at 46.1 µM (top of the series)
# Potency is the fitted concentration of half-maximal effect; tags give direction and shape of the fitted curve.
Compound,"activity, positive = re-replication",Potency
COc1ccc(C(=O)NNC(=O)c2cccs2)cc1S(=O)(=O)N1CCOCC1,inactive: 11.8%,–
CN1CCN(c2ccc(CNS(=O)(=O)Cc3ccc(Cl)cc3)cc2)CC1,–,"inconclusive [activator, partial curve, poor fit]"
CC(C)(C)n1nc2c(c1NC(=O)C1CC(=O)N(c3ccc(Cl)cc3)C1)CS(=O)(=O)C2 (centres undefined),inactive: -2.12%,–
Nc1ccc(-c2cc(-c3cccc(N)c3)nc(-c3ccccc3)n2)cc1,–,active: 16.4 µM
O=C(c1ccccc1F)N1CCN(c2cccc(C(F)(F)F)c2)CC1,–,"inconclusive [activator, partial curve, poor fit]"
Cn1c(=O)c2c(nc(NCc3ccccc3)n2CCCc2ccccc2)n(C)c1=O,–,"inconclusive [activator, partial curve, poor fit]"
O=S(=O)(c1ccccc1)N1CCCC1c1cccs1 (centres undefined),–,"inconclusive [activator, full curve, poor fit]"
O=C(CCn1ccc2cc(S(=O)(=O)N3CCCC3)ccc21)NCc1cccc(F)c1,–,"inconclusive [activator, single point]"
Cc1ccc2cc(/C=C3\N=C(c4ccccc4)OC3=O)c(N3CCOCC3)nc2c1,–,"inconclusive [activator, full curve, poor fit]"
Cc1ccc(C(=O)Nc2nnc(C)s2)cc1,inactive: -13.1%,–
O=[N+]([O-])c1cccc(S(=O)(=O)NCC2CC3CCC2C3)c1 (centres undefined),inactive: -2.23%,–
C[C@@H](C(=O)Nc1ccc2ccccc2c1)[C@H]1C[C@]1(C)[C@H](NC(=O)OCc1ccccc1)c1ccccc1,–,"inconclusive [activator, partial curve]"
C=CCc1cc(Cl)ccc1OCCn1ccnc1,inactive: -1.3%,–
CCCCN(CC)CCNC(=O)c1cn(-c2ccc(Cl)cc2)c(=O)c2ccccc12,–,"inconclusive [activator, partial curve]"
Cc1ccc(/C=C/C(=O)c2nc3ccccc3[nH]2)cc1,–,"inconclusive [activator, single point]"
CC(=O)Oc1c(-c2ccc(Br)o2)oc2ccccc2c1=O,–,"inconclusive [activator, single point]"
CCN(CC)C(=O)[C@H]1C[C@H](CC(=O)NC/C=C(\C)CCC=C(C)C)C(=O)N2CCc3c([nH]c4cc(CCC(=O)N(C)C)ccc34)[C@]12C,–,"inconclusive [activator, full curve]"
Oc1ccc(Br)cc1/C=N/n1c(COc2ccccc2)n[nH]c1=S,–,"inconclusive [activator, single point]"
O=C(/C=C/c1ccccc1Cl)c1ccccc(=O)c1O,–,active: 10.3 µM
OC(CNCCC1C=Nc2ccccc21)Cn1c2ccc(Cl)cc2c2cc(Cl)ccc21 (centres undefined),–,active: 5.17 µM
CC(C)Cn1c(N)c(C(=O)COC(=O)c2c(F)cccc2F)c(=O)n(C)c1=O,–,active: 0.517 µM
Oc1ccc(C=Nc2ccccc2-c2nc3ccccc3[nH]2)cc1,–,"inconclusive [activator, single point]"

Compound,"activity, positive = re-replication",Potency
O=C(c1ccc(CN2CCOCC2)cc1)N1CCN(c2cccc(Cl)c2)CC1,–,"inconclusive [activator, partial curve, poor fit]"
NC(=O)CC(NC(=O)Cc1ccc(Cl)cc1)c1ccc(NC2CCCC2)c([N+](=O)[O-])c1 (centres undefined),inactive: 0.227%,–
COC(=O)C1=C(C)NC(C)=C(C(=O)OC)C1c1cc2cc(C)ccc2[nH]c1=O,inactive: 23.8%,–
CCN(c1ccccc1)S(=O)(=O)c1ccc(OC)c(NC(=O)CNCCc2ccccc2)c1,–,"inconclusive [activator, partial curve, poor fit]"
CN(C)c1ccc(N=Nc2ccccc2C(=O)OCC(=O)NC2CCCC2)cc1,–,"inconclusive [activator, partial curve]"
C#CC(C)(C)NC(=O)c1ccc(-c2ccccc2F)cc1,inactive: 6.41%,–
CC(C)(C)n1nc(-c2ccc(Cl)cc2)c2c(N)ncnc21,–,"inconclusive [activator, partial curve, poor fit]"
NC(=O)c1c(NC(=O)C2c3ccccc3Oc3ccccc32)sc2c1CCCCC2,–,"inconclusive [activator, single point]"
COc1ccc(-c2noc(N3CCC(C(=O)Nc4ccc(F)cc4F)CC3)n2)cc1,inactive: 16.8%,–
Cc1sc2ncnc(N3CCC(C(=O)Nc4cc(Cl)ccc4Cl)CC3)c2c1C,–,"inconclusive [activator, single point]"
CCN(CC)CC#CCC(O)(c1ccccc1)C1CCCCC1 (centres undefined),–,"inconclusive [activator, single point]"
CCCCSc1nc(C)cc(NC(=S)Nc2ccc(OC)cc2)n1,–,"inconclusive [activator, partial curve, poor fit]"
COc1cccc(Nc2nc(NCCO)c3ccccc3n2)c1,–,"inconclusive [activator, single point]"
N#Cc1nc(COc2ccc(-c3ccccc3)cc2)oc1NCCCN1CCOCC1,–,active: 11.2 µM
Cc1ccc(S(=O)(=O)N2CCOCC2)cc1C(=O)OCC(=O)NC1CCCC(C)C1C (centres undefined),–,"inconclusive [activator, single point]"
O=C(Nc1ccc(F)cc1)c1cc2c(s1)CCCC2,–,"inconclusive [activator, single point]"
COC(=O)c1ccc2c(=O)[nH]c(COC(=O)c3c(-c4ccccc4Cl)noc3C)nc2c1,–,"inconclusive [activator, partial curve]"
CSCC[C@H](NC(=O)OC(C)(C)C)C(=O)N1CCC(C(=O)NCC(=O)Nc2ccc(C)cc2)CC1,inactive: -0.554%,–
S=c1[nH]nc(-c2ccc(Cl)cc2)n1Cc1ccccc1,inactive: -0.626%,–
Cc1cc(=O)[nH]c(N/N=C/c2cc(C)n(-c3ccccc3)c2C)n1,inactive: 4.02%,–
CCCCCCCCCCC[C@@H](C[C@@H]1OC(=O)[C@H]1CCCCCC)OC(=O)[C@H](CC(C)C)NC=O,inactive: -6.59%,–
CN(C)S(=O)(=O)N1CCC(Oc2cccc(C(=O)NC3CCCCC3)c2)CC1,inactive: 14.3%,–

# From PubChem BioAssay AID624296 (National Center for Advancing Translational Sciences (NCATS), 2012)
